The values below come from article PMC4336329 (PLoS ONE, 2015).

Out of some 310,000 compounds screened, about 2,200 (0.71%) showed an effect of 50% or more. The effect is printed as a negative number. The list shows a part of the results.

The target of the experiment is human ether-à-go-go-related gene (hERG) potassium channel (human, UniProt Q12809). Nature of the experiment: primary screen, population patch clamp on CHO cells stably expressing hERG.
human ether-à-go-go-related gene (hERG) potassium channel, sequence (Q12809 whole entry, looked up): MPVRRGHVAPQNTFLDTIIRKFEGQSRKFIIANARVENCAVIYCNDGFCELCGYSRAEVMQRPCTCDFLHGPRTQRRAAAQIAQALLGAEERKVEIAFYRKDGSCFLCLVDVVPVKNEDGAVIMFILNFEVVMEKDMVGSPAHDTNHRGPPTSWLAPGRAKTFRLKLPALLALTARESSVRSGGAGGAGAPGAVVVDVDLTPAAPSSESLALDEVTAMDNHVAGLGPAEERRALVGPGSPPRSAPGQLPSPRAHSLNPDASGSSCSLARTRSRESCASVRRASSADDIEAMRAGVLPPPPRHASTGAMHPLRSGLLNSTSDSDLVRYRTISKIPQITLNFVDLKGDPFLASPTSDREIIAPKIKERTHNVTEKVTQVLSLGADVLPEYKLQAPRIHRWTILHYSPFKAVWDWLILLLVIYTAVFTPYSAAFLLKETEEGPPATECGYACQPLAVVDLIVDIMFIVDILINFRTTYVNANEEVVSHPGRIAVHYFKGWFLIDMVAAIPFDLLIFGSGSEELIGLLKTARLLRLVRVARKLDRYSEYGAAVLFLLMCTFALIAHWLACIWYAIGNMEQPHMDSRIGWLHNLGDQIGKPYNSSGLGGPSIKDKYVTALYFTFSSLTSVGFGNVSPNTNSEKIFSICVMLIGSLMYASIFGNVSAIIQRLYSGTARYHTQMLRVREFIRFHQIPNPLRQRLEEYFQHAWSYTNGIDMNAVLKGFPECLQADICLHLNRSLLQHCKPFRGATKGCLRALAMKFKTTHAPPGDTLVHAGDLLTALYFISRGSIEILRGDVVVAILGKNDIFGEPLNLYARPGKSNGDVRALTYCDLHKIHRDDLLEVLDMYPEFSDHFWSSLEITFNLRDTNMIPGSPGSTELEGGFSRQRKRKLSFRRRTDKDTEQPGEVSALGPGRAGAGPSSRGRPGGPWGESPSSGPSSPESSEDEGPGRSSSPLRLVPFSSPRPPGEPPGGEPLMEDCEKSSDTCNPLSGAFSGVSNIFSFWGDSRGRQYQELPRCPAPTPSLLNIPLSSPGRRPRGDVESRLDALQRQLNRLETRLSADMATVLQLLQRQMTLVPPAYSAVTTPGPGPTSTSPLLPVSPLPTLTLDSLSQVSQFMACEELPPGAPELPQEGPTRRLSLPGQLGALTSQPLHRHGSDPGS
For the compound `Cc1ccc(CN2C(=O)N/C(=C/c3ccc4c(c3)n(C)c(=O)n4C)C2=O)cc1`, the “hERG current change (%, negative = inhibition) at 1uM” value was 2.43%. The value for `Cc1cccc(N(CC(=O)N2CCCC2)S(C)(=O)=O)c1` was 10.2%; that for `CCc1nn(CC(=O)NCCCN2CCOCC2)c(=O)c2cc3cc(F)ccc3n12` was 12.2%; that for `CC(=O)Nc1ccc(N=Cc2c(O)c3ccccc3oc2=O)cc1` was 15.7%. With `Cc1cc(NC(=O)CSc2ccccc2)no1`, the “hERG current change (%, negative = inhibition) at 1uM” value is listed as 14.2%. The value for `Cc1cc(C(=O)OCC(=O)Nc2cc(Cl)ccc2C)c(C)o1` was 8.83%. In the case of `COc1ccc(S(=O)(=O)N2CCC(C(=O)NCc3ccc(C)cc3)CC2)cc1` it was 8.1%. In the case of `CC(C)CN1CCC(=O)N([C@H](CSc2ccc(Br)cc2)c2ccccc2)CC1` it was -21.5%; in that of `CC1(C)C(=O)Nc2ccccc2N1C(=O)COC(=O)c1ccc(Cl)c(S(=O)(=O)NCc2ccccc2)c1`, 6.97%; in that of `COCc1cc(=O)[nH]c(-c2ccccc2OC(F)(F)F)n1`, -16.7%. Take `O=C(COc1cc(Cl)c(Cl)cc1Cl)NCCN1CCOCC1`: the “hERG current change (%, negative = inhibition) at 1uM” value turned out to be 5.99%. For the compound `Cc1ccc(NC(=O)NC2CCCCC2)cc1Cl`, the “hERG current change (%, negative = inhibition) at 1uM” value was 13.4%. The value for `Cc1cc(Br)cc(Cl)c1OC(=O)c1cnccn1` was 15.2%. For `Cc1cccc(C)c1-n1c(C)cc(/C=C2\C(=O)NN(c3ccccc3)C2=O)c1C`, the “hERG current change (%, negative = inhibition) at 1uM” value was found to be 1.9%. In the case of `Cc1c(CC(=O)NCCCC(=O)O)c(=O)oc2cc3oc4c(c3cc12)CCCC4` it was 8.61%. The value for `CC(=O)c1cccc(NC(=O)CSCc2ccc(Br)cc2)c1` was 11.2%; that for `COC(=O)c1c(NC(=O)c2cccnc2Cl)sc(C(=O)N(C)C)c1C` was 5.82%; that for `CCOC(=O)C1CCCN(C(=O)c2cc(S(=O)(=O)N3CCCCCC3)ccc2OC)C1` (stereo not shown) was 8.83%.

Regarding `Cn1cccc1/C=N/N1CCN(Cc2cccc3ccccc23)CC1`, the “hERG current change (%, negative = inhibition) at 1uM” value is recorded as 12.2%. As for `C=C(C)Cn1c(SCC(=O)O)nnc1-c1ccccc1`, the “hERG current change (%, negative = inhibition) at 1uM” value was determined as 6.79%. In the case of `O=C(N/N=C/c1cccnc1)c1ccc([N+](=O)[O-])cc1Cl` it was 2.33%; in that of `CC#CC(=O)N1CCC(Oc2cccc(C(=O)NCc3ccccn3)c2)CC1`, 12.9%.

For the compound `Cn1c([N+](=O)[O-])cnc1COC(N)=O`, the “hERG current change (%, negative = inhibition) at 1uM” value was 16.2%. The value for `Cc1cccc(OCCCC(=O)Nc2nccs2)c1` was 2.81%; that for `O=C(NCc1ccccn1)C(=O)NN=C1CCCCCCCCCCC1` was 6.18%. For `CCCCn1nc2cc(C(=O)NC3CCc4ccccc43)ccc2c1OCC` (stereo not shown), the “hERG current change (%, negative = inhibition) at 1uM” value was 8.76%. Consider `CCOn1c(=O)c(=O)n(O)c2ccccc21`, for which the “hERG current change (%, negative = inhibition) at 1uM” value stood at 24.4%.

As to `CCc1ccc(NC(=O)CCc2c(C)nn(-c3ccc(N4CCCCC4)nn3)c2C)cc1`, the “hERG current change (%, negative = inhibition) at 1uM” value amounted to 4.74%. The value for `Cc1cccc(C)c1NC(=O)COc1ccc2c(C)c(Cc3ccccc3)c(=O)oc2c1C` was 9.84%. In the case of `CC(=O)NC(Cc1ccccc1)C(=O)NC1CCN(C(=O)c2ccc([N+](=O)[O-])cc2)CC1` (stereo not shown) it was 6.04%; in that of `CCOC(=O)c1cnc(Nc2nc3ccccc3o2)nc1C`, -2.13%. For the compound `CCCCNC1=C(Br)C(=O)CC(C)(C)C1`, the “hERG current change (%, negative = inhibition) at 1uM” value came out at 10.6%. `CC(=O)Oc1ccc2nc(-c3cccs3)oc(=O)c2c1`: the “hERG current change (%, negative = inhibition) at 1uM” value was 6.01%.

As for `COc1ccc(CCC(C)NCc2cc(OC)cc(OC)c2)cc1` (stereo not shown), the “hERG current change (%, negative = inhibition) at 1uM” value is on record as 3.19%.

Turning to `COc1ccccc1C1C(C(C)=O)=C(O)C(=O)N1CCc1ccccc1` (stereo not shown), the “hERG current change (%, negative = inhibition) at 1uM” value is given as 18.8%. Take `O=[N+]([O-])c1cccc(N(CC(O)CN2CCCC2)S(=O)(=O)c2ccccc2)c1` (stereo not shown): the “hERG current change (%, negative = inhibition) at 1uM” value is -25.9%. The value for `Cc1csc(=O)n1CC(=O)OCc1nnc(-c2ccc(Cl)cc2)o1` was 15.6%.

Regarding `COc1cc(NS(=O)(=O)c2ccc(NC(=S)NC(=O)c3ccc(F)c(F)c3)cc2)nc(OC)n1`, the “hERG current change (%, negative = inhibition) at 1uM” value is listed as 13.7%. Consider `CC(C(=O)Nc1ccccc1)N1C(=O)c2ccccc2C1=O` (stereo not shown), for which the “hERG current change (%, negative = inhibition) at 1uM” value worked out at 12.8%.

In the case of `O=C(NCc1ccncc1)C(=O)NCc1ccco1`, the “hERG current change (%, negative = inhibition) at 1uM” value was 4.61%. In the case of `CC1Cc2ccccc2N1CC(=O)Nc1ccc2c(c1)OC(F)(F)O2` (stereo not shown) it was 9.18%; in that of `COC(=O)c1ccc2nc(NC(=O)C(C)(C)C)sc2c1`, 0.391%.

Regarding `O=C(CO/N=C/c1ccccc1O)N1CCc2ccccc21`, the “hERG current change (%, negative = inhibition) at 1uM” value is listed as 4.34%. In the case of `COc1ccc(C(OC(=O)c2ccco2)C(=O)NCC2CCCO2)cc1` (stereo not shown), the “hERG current change (%, negative = inhibition) at 1uM” value worked out at 12.7%. With `COc1ccc(-c2nnc(CSc3nc4ccccc4c(=O)n3CC3CCCO3)o2)cc1OC` (stereo not shown), the “hERG current change (%, negative = inhibition) at 1uM” value was -5.79%. The value for `CCCCCCC1C(C#N)=C(N)OC2=C1C(=O)CCC2` (stereo not shown) was 6.79%; that for `COn1c(SC2CCCCC2)nc2ccccc2c1=O` was 3.77%; that for `CC(=O)c1c(C)[nH]c(C(=O)OCC(=O)Nc2cccc(S(=O)(=O)N(C)C)c2)c1C` was 11.3%. As for `Cc1cc(SCC(=O)OCC(=O)N2CCN(C(=O)c3ccco3)CC2)c(C)cc1Br`, the “hERG current change (%, negative = inhibition) at 1uM” value stood at 6.43%. The value for `CCOc1ccccc1Nc1nnc(SC(C)C(=O)Nc2nc(-c3ccccc3)cs2)s1` (stereo not shown) was 8.02%; that for `Cc1cc(C(=O)COC(=O)c2ccc3c(c2)NC(=O)CS3)c(C)n1CC1CCCO1` (stereo not shown) was 12.9%; that for `COC(=O)c1ccc2c(=O)n3c(nc2c1)SCC(c1ccccc1)=N3` was 7.63%.

In the case of `NNc1nc(-c2ccccc2)c2ccccc2n1`, the “hERG current change (%, negative = inhibition) at 1uM” value worked out at 8.58%. In the case of `C=CCn1nc2ccccc2c1OC` it was 13.2%; in that of `O=S(=O)(NCCc1ccccc1)c1ccc(S(=O)(=O)N2CCCCC2)cc1`, 14.4%. On to `O=C(O)c1c[nH]c(=O)c2ccccc12`, for which the “hERG current change (%, negative = inhibition) at 1uM” value stood at 15.4%. Turning to `COc1ccccc1NC(=O)c1cc(S(=O)(=O)N2CCC3(CC2)OCCO3)ccc1F`, the “hERG current change (%, negative = inhibition) at 1uM” value is recorded as -5.88%. The value for `CCOC(=O)c1cc2sccc2n1CC(=O)Nc1ccc2c(c1)OCCO2` was 18%.
